Results taken from the RNAGym collection of RNA variant scans (doi:10.1101/gad.245936.114).
Variants at the floor of the assay are shown more often than the library holds them.

B1: tRNA (parent)
chain: CUCUCGGUAGCCAAGUUGGUUUAAGGCGCAAGACUUUAAUUUAUCACUACGAAAUCUUGAGAUCGGGCGUUCGACUCGCCCCCGGGAGAUUUUUUCCUCGAGCAA

Variants of: B1
Test: nonsense suppression (GFP-seq) (ratio to wild type); higher = more function; SUP4oc tRNA, yeast GFP reporter sort-seq
Method in brief: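 Nonsense suppression (GFPSEQ) is the median GFP/RFP ratio of each sorting bin, weighted by the variant's estimated share of cells in that bin and expressed relative to the unmutated parent tRNA. Yeast strains carried genome-integrated variants of an ochre-suppressor tRNA from a library with ~3% random mutations, plus a galactose-driven GFP ochre reporter and RFP, and were grown in raffinose/galactose medium containing 80 mg/L adenine. Cells were sorted into GFP/RFP bins, each bin was Illumina-sequenced (phred ≥30), and variants were kept only with ≥100 reads and ≥30 cells.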

Row | Variant | nonsense suppression
1 | C34G G73C G88C | ≤ 0.026
2 | A33G G67A | ≤ 0.026
3 | A33G G67C | ≤ 0.026
4 | A33C A60G A87C | ≤ 0.026
5 | C34A C56U G61U | ≤ 0.026
6 | C34G A62C U63C | ≤ 0.026
7 | A33G G59U | ≤ 0.026
8 | U35A C68U | ≤ 0.026
9 | U35A C68G | ≤ 0.026
10 | C34U U70G | ≤ 0.026
11 | C34U U70A | ≤ 0.026
12 | C34G U58C | ≤ 0.026
13 | C34A A60G | ≤ 0.026
14 | C34A A60U | ≤ 0.026
15 | G32U A62G U63A | ≤ 0.026
16 | U35A U71C | ≤ 0.026
17 | C34G U55G G88C | ≤ 0.026
18 | A33U U63G C79U | ≤ 0.026
19 | A33G C79G | ≤ 0.026
20 | C34G A54C | ≤ 0.026
21 | C34G A54U | ≤ 0.026
22 | C34G U55A U57G | ≤ 0.026
23 | A33G U63A | 0.031
24 | G32U U57A C81G A87U | ≤ 0.026

Row | Variant | nonsense suppression
25 | U35C G73C | ≤ 0.026
26 | A33C U58A | ≤ 0.026
27 | A33C U58G | ≤ 0.026
28 | A33C G86A | ≤ 0.026
29 | C34U C79A | ≤ 0.026
30 | A33G C75U | 0.275
31 | A33G C75G | 0.216
32 | G32U A60U | ≤ 0.026
33 | A33U C68G C80A | ≤ 0.026
34 | A33G C82U | ≤ 0.026
35 | A33U U55C U63A U70C | ≤ 0.026
36 | A33C U63C | ≤ 0.026
37 | U35A G65C G85C | ≤ 0.026
38 | A33C A54U | ≤ 0.026
39 | A33C A54G | ≤ 0.026
40 | A33C C80A A87U | ≤ 0.026
41 | A33C C80A A87G | ≤ 0.026
42 | U35G G59A G61U G88C | ≤ 0.026
43 | A33U C79U G85A | ≤ 0.026
44 | G32U C81U | ≤ 0.026
45 | C34G U63A G65U G84C | ≤ 0.026
46 | A33C C56A G78A | ≤ 0.026
47 | A33G G67C C77U | ≤ 0.026
48 | A33G G67C C77G | ≤ 0.026

Row | Variant | nonsense suppression
49 | C34G C64A U76G | ≤ 0.026
50 | A33U G67U | ≤ 0.026
51 | U35A C81A | ≤ 0.026
52 | C34G U63A G69U | ≤ 0.026
53 | A33U G85A | 0.0389
54 | U35A G73U G84C | ≤ 0.026
55 | U35A U70C | ≤ 0.026
56 | A33C C72G C79A | ≤ 0.026
57 | C34G C56U | ≤ 0.026
58 | C34G C56A | ≤ 0.026
59 | C34G C80U | ≤ 0.026
60 | G32U G65A G66C | ≤ 0.026
61 | C34G A74U | ≤ 0.026
62 | A33G C79A C81A | ≤ 0.026
63 | A33G C77A | ≤ 0.026
64 | A33U G84A | ≤ 0.026
65 | A33U A89U | ≤ 0.026
66 | C34U G78C | ≤ 0.026
67 | C34A U57A | ≤ 0.026
68 | A33C A54C G84U | ≤ 0.026
69 | A33C A60U U71C | ≤ 0.026
70 | C34G G67U | ≤ 0.026
71 | U35C G61A | 0.0378
72 | C34A U63C | ≤ 0.026

Row | Variant | nonsense suppression
73 | C34A U63G | ≤ 0.026
74 | C34A G65C | ≤ 0.026
75 | G32U C79A | ≤ 0.026
76 | U35A G59A G67A | ≤ 0.026
77 | U35A G78C | ≤ 0.026
78 | G32U G65C | ≤ 0.026
79 | C34U C56U | ≤ 0.026
80 | A33G U57G G69A | ≤ 0.026
81 | C34G G61C | ≤ 0.026
82 | C34A A62C C75G G85C | ≤ 0.026
83 | C34G A74C G86A | ≤ 0.026
84 | G32U U71C G84A | ≤ 0.026
85 | U35A G88A | ≤ 0.026
86 | G32U G84A A89G | ≤ 0.026
87 | C34A U58A C77A | ≤ 0.026
88 | C34A A62C U63G G88C | ≤ 0.026
89 | U35C U57C C80A | ≤ 0.026
90 | A33G G73C | ≤ 0.026
91 | C34G U55G | ≤ 0.026
92 | C34G U55C | 0.276
93 | C34G G78C G85A | ≤ 0.026
94 | U35C U63A A89C | ≤ 0.026
95 | U35A A62C G88C | ≤ 0.026
96 | C34G U63C | ≤ 0.026

Row | Variant | nonsense suppression
97 | A33U C72A | ≤ 0.026
98 | C34A G67C | ≤ 0.026
99 | A33U G88U | ≤ 0.026
100 | A33U G61U G88C | ≤ 0.026
101 | C34U G66C C81A G86C A89U | ≤ 0.026
102 | A33C C34U A74U | ≤ 0.026
103 | C34A A74U | ≤ 0.026
104 | A33U G65C | ≤ 0.026
105 | A33U A54G | ≤ 0.026
106 | A33U U63G | ≤ 0.026
107 | U35G C56G | ≤ 0.026
108 | A33G C34G U55A U76A G84C | ≤ 0.026
109 | U35A C64U | ≤ 0.026
110 | U35A A60C | ≤ 0.026
111 | C34G A54G G61C | ≤ 0.026
112 | C34G C56U C81G | ≤ 0.026
113 | C34U G59C G85C | ≤ 0.026
114 | C34U G61C | 0.0481
115 | C34U G61U | ≤ 0.026
116 | U35A G61C G66C C72G G85C | ≤ 0.026
117 | A33U U57A A60G | ≤ 0.026
118 | C34G A54G C79A | ≤ 0.026
119 | C34U A87U G88A | ≤ 0.026
120 | U35G A89U | ≤ 0.026

Row | Variant | nonsense suppression
121 | U35G A89G | ≤ 0.026
122 | A33C C83A G84U | ≤ 0.026
123 | U35A C77U | ≤ 0.026
124 | C34U G86C | ≤ 0.026
125 | U35A G85A | ≤ 0.026
126 | A33U U76G | ≤ 0.026
127 | A33G U55A A74C | ≤ 0.026
128 | U35G C64G | ≤ 0.026
129 | A33C A54C U57G C80U | ≤ 0.026
130 | C34A A60C G66U G73A | ≤ 0.026
131 | A33U C68G | ≤ 0.026
132 | C34A A62U G88U | ≤ 0.026
133 | U35A U57G C81U G85C A87U | ≤ 0.026
134 | C34A G86U | ≤ 0.026
135 | A33G U76A | ≤ 0.026
136 | C34A G61A A89G | ≤ 0.026
137 | A33G U63C C77G C79G | ≤ 0.026
138 | A33U A54G U76G | ≤ 0.026
139 | U35G C82G | ≤ 0.026
140 | A33U G84C G88C | ≤ 0.026
141 | C34G A60C | ≤ 0.026
142 | C34G A60G | ≤ 0.026
143 | C34G A60U | ≤ 0.026
144 | A33G U57C | ≤ 0.026

Row | Variant | nonsense suppression
145 | A33U U70C | ≤ 0.026
146 | C34G C68A G88U | ≤ 0.026
147 | A33G A89U | ≤ 0.026
148 | U35C G84A | ≤ 0.026
149 | C34U G67A C72G | ≤ 0.026
150 | A33G U63C C75G | ≤ 0.026
151 | A33C C56A U58G G85U | ≤ 0.026
152 | C34U A54G U63G | ≤ 0.026
153 | A33G U57C U70G A89G | ≤ 0.026
154 | C34A U57A U71G | ≤ 0.026
155 | C34G C79A | ≤ 0.026
156 | U35G C68G C82U | ≤ 0.026
157 | A33C A54G U76C | ≤ 0.026
158 | A33G G78A | ≤ 0.026
159 | C34U G67C C80A | ≤ 0.026
160 | U35A C79U | ≤ 0.026
161 | U35A C79A | ≤ 0.026
162 | A33G G86A | ≤ 0.026
163 | A33C G67U C80U | ≤ 0.026
164 | A33G G88C | ≤ 0.026
165 | A33G G88A | ≤ 0.026
166 | U35C G88A | ≤ 0.026
167 | U35G C68U | ≤ 0.026
